Results from PubChem BioAssay AID504832 (National Center for Advancing Translational Sciences (NCATS), 2011).
Screen size: about 310,000 compounds; about 18,000 (5.8%) were called active. Inconclusive means that the source gave no clear call. Such entries were picked first, then a sample of the others. Calls follow the shape of the dose curve; as a rule, active = well fitted inhibition curve with a large enough effect; inconclusive = small, poorly fitted or top-dose-only effect, or another doubt; inactive = no such curve, though single readings can be large or run the other way. Potencies of inconclusive entries are left out as doubtful fits.

assay: Primary qHTS for delayed death inhibitors of the malarial parasite plastid, 48 hour incubation; settings: P. falciparum luciferase growth in erythrocytes; series mostly up to 28.7 µM
Summary of the method: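 First compound was added to culture medium, then infected red cells at 0.1% parasitemia and 2% hematocrit (final). After incubation at 37 C under 5% CO2, luciferase detection reagent was dispensed and light output recorded.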
Potency is read from the fitted curve at half-maximal effect; tags tell the direction and shape of the fitted curve.

SMILES | Potency
O=S(=O)(Nc1ccc(Cc2ccncc2)cc1)c1ccc(Br)s1 | inconclusive [inhibitor, partial curve, poor fit]
O=C(c1cccs1)N1CCC(Cc2ccccc2)CC1 | active: 8.28 µM
CCOC(=O)CNC(c1ccccc1)c1cc(Br)ccc1NC(C)=O (stereo not given) | inconclusive [inhibitor, partial curve, poor fit]
O=C(Nc1ccc(S(=O)(=O)N2CCCCC2c2cccnc2)cc1)c1c(F)cccc1F (stereo not given) | inconclusive [inhibitor, single point]
Cc1cccc2cc(/C=N/NC(=O)[C@H]3C[C@@H]3c3ccccc3)c(Cl)nc12 | inactive
CCc1noc(C)c1C(=O)Nc1nnc(C(CC)CC)s1 | inconclusive [inhibitor, partial curve, poor fit]
C#CCOCCOCCOCCNc1nc(N2CCN(C(=O)C(Cc3ccc(O)cc3)n3cc(C(N)CC(C)C)nn3)CC2)nc(N2CCN(C(=O)C(Cc3cc4ccccc4[nH]3)n3cc(C(N)C(C)CC)nn3)CC2)n1 (stereo not given) | inconclusive [inhibitor, partial curve, poor fit]
O=C1CCNc2ccc(-c3ccccc3)cc21 | inactive
COc1cc(-c2noc(C)c2-c2ccc3[nH]ccc3c2)cc(OC)c1OC | inconclusive [inhibitor, partial curve, poor fit]
Cc1cc(C)cc(OCCNC(=O)c2cc(S(=O)(=O)N3CCOCC3)ccc2F)c1 | inconclusive [inhibitor, partial curve]
CCCC12CN(C(=O)c3ccc(OC)cc3)CC(C)(CN(C(=O)c3ccc(OC)cc3)C1)C2=O | inconclusive [inhibitor, partial curve]
CCOC(=O)c1c(C)oc2c1c(C(c1cccnc1)N1CCCCC1)c(O)c1ccccc12 (stereo not given) | inconclusive [inhibitor, single point]
CCCN(CCC)Cc1cc(=O)oc2cc3c(cc12)CCC3 | inconclusive [inhibitor, single point]
CCOC(=O)CCc1c(C)nc(SCCCn2c(=O)[nH]c3ccccc32)c(C#N)c1C | inconclusive [inhibitor, partial curve]
O=C(c1cccnc1)N1N=C(C2CCCCC2)CC1(O)C(F)(F)F (stereo not given) | inconclusive [inhibitor, full curve, poor fit]
CCN(CC)S(=O)(=O)c1cc(NC(=O)C(C)N2CCc3ccccc32)ccc1C (stereo not given) | inconclusive [inhibitor, single point]
CC1=C/C(=C/N(C)c2ccccc2)C(=O)S1 | inconclusive [inhibitor, partial curve, poor fit]
COc1ccccc1CC(=O)Nc1ccc(F)cc1F | inconclusive [inhibitor, partial curve, poor fit]
COc1cc(CNCCc2ccc3c(c2)OCO3)cc(OC)c1OC | inconclusive [inhibitor, single point]
NCCCC(=O)N1c2ccccc2Sc2ccc(Cl)cc21 | inconclusive [inhibitor, single point]

SMILES | Potency
O=C(O)C1C2C=CC(C2)C1C(=O)N1CCOCC1 (stereo not given) | inactive
COc1cc(-c2noc(CCCC(=O)Nc3cccnc3)n2)cc(OC)c1OC | inconclusive [inhibitor, single point]
CCN(CC)S(=O)(=O)c1cc(NC(=O)c2ccc(-n3cncn3)c([N+](=O)[O-])c2)ccc1C | active: 13.1 µM
Cc1c(OCC(=O)C(C)(C)C)ccc2c(-c3ccccc3)cc(=O)oc12 | inactive
CNc1nc(-c2ccc(S(=O)(=O)N3CCCCC3)cc2)cs1 | inconclusive [inhibitor, single point]
Cc1ccccc1CN(c1ccc(C(=O)NCCC2=CCCCC2)cc1)S(C)(=O)=O | inconclusive [inhibitor, partial curve, poor fit]
S=C(NC1CCCC1)N1CCOCC1 | inactive
CC(C)C(=O)NC(c1ccc(N(C)C)cc1)c1c(O)ccc2ccccc12 (stereo not given) | inconclusive [inhibitor, single point]
CNC(=O)c1c(NC(NC(=O)c2ccco2)C(=O)c2ccc(Cl)cc2)sc2c1CCCC2 (stereo not given) | inconclusive [inhibitor, partial curve, poor fit]
COc1ccc(CC(=O)NNC(=O)c2c(-c3ccccc3Cl)noc2C)cc1OC | inactive
Cc1ccc(Nc2nc3nonc3[nH]c2=O)cc1Cl | inconclusive [inhibitor, single point]
Cc1ccc2c(c1)c1c3n2CCN(CC#N)C3CCC1 (stereo not given) | inconclusive [inhibitor, partial curve, poor fit]
O=[N+]([O-])c1cc(CN2CCN(c3ccccc3)CC2)c(O)c2ncccc12 | inconclusive [inhibitor, full curve]
Cc1cc(C)c(S(=O)(=O)N2CCCC(C(=O)NCCC3=CCCCC3)C2)c(C)c1 (stereo not given) | inconclusive [inhibitor, single point]
Cc1cc(N2CCN(S(=O)(=O)c3ccc(Cl)c(Cl)c3)CC2)c2ccccc2n1 | active: 11.7 µM
O=S(=O)(c1ccc(F)cc1)N1CCN(c2nc(-c3cccnc3)nc3ccccc23)CC1 | active: 9.28 µM
CCOc1ccc(OCCC(=O)OCC(=O)c2c(N)n(C)c(=O)n(C)c2=O)cc1 | inconclusive [inhibitor, single point]
CCOC(=O)Cn1c(CN2CCN(c3cccc(Cl)c3)CC2)nc2c1c(=O)[nH]c(=O)n2C | inconclusive [inhibitor, single point]
CCn1ccnc1CN(C)Cc1c(C(=O)N2C[C@@H](C)O[C@@H](C)C2)nc2ccc(Cl)cn12 | inactive
O=C(CN1C(=O)c2cccnc2Oc2ccc(Cl)cc21)NC1CCCCC1 | inconclusive [inhibitor, single point]
